{"source": "PubChem BioAssay AID651820", "about": "(National Center for Advancing Translational Sciences (NCATS), 2012)", "note": "Out of some 340,000 compounds screened, about 12,000 (3.5%) were called active. The inconclusive results got no clear call from the source; some entries with a clear call stand among them for comparison. The call rests on the fitted dose curve; in most records, active means well fitted inhibition curve with a large enough effect; inconclusive means small, poorly fitted or top-dose-only effect, or another doubt; inactive means no such curve, though single readings can be large or run the other way. Potencies of inconclusive entries are left out as doubtful fits. Potency means the concentration at half of the fitted maximal effect; tags describe the fitted curve by direction and shape.", "data": [{"experiment": "qHTS Assay for Inhibitors of Hepatitis C Virus (HCV)", "details": "Huh7.5.1 HCVcc-Cre (HCVcc is cell-culture hepatitis C virus) infection, luciferase reporter, 44 h; series mostly up to 41.8 µM", "outline": "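Seed cells (1,000/well) for 4 h; treat with compound and infect with HCVcc-Cre, moi about 0.5. Incubate 44 h, then detect luciferase activity.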", "values": [{"smiles": "COc1ccc(-c2c(-c3cc(OC)cc(OC)c3)n(C)c3ccc(-c4ccn[nH]4)cc23)cc1", "Potency": "active: 11.2 µM"}, {"smiles": "CN(C)CCN(C)Cc1ccccc1Sc1cccc2ccccc12", "Potency": "active: 11.2 µM"}, {"smiles": "CCCCNC(=O)C(C1CCCCC1)N(CCN(C)C)C(=O)CCCN1C(=O)NC(c2ccc(-c3ccccc3)cc2)C(C(=O)OCc2ccccc2)=C1C", "note": "(stereo not given)", "Potency": "active: 10 µM"}, {"smiles": "COc1ccc(Cc2nc(-c3ccc(Br)o3)no2)cc1OC", "Potency": "inconclusive [inhibitor, single point]"}, {"smiles": "Cc1ccc(C)c(NC(=O)CSc2nc3nc(-c4cccs4)cc(C(F)(F)F)c3c(=O)[nH]2)c1", "Potency": "inconclusive [inhibitor, single point]"}, {"smiles": "COCCN(CCOC)c1ncc(Cl)c(C(=O)c2c(C)cc3ccccn23)n1", "Potency": "inconclusive [inhibitor, partial curve]"}, {"smiles": "CC(C)(C)[C@H]1COC(=O)CC/C=C\\C[C@H](CC(=O)N(CCO)Cc2ccccc2)C(=O)N1", "Potency": "inconclusive [inhibitor, single point]"}, {"smiles": "CC1CCC(NC(=O)CNC(=O)Cc2cccc3ccccc23)CC1", "note": "(stereo not given)", "Potency": "inactive"}, {"smiles": "Cc1ccc(-c2csc(N/N=C/C=C/c3ccccc3)n2)cc1", "Potency": "inactive"}, {"smiles": "Nc1ccc(N=Nc2ccccc2Cl)c(N)n1", "Potency": "inconclusive [inhibitor, single point]"}, {"smiles": "CN(C)C(=O)CSc1cccc2cccnc12", "Potency": "inconclusive [inhibitor, single point]"}, {"smiles": "CCOc1ccc(N=CC2=C(O)CC(c3ccco3)CC2=O)cc1", "note": "(stereo not given)", "Potency": "inactive"}, {"smiles": "COc1nc(/C=C/N(C)C)c([N+](=O)[O-])c(OC)n1", "Potency": "inconclusive [inhibitor, single point]"}, {"smiles": "N#Cc1ccc(CSc2nnc(-c3cccs3)n2-c2ccccc2)cc1", "Potency": "active: 0.631 µM"}, {"smiles": "CC(C)CNC(=S)N(Cc1ccco1)Cc1cc2cc3c(cc2[nH]c1=O)OCCO3", "Potency": "inconclusive [inhibitor, single point]"}, {"smiles": "Cc1ccccc1C(=O)Nc1nnc(CC(=O)N/N=C/c2cn(Cc3ccccc3)c3ccccc23)s1", "Potency": "inconclusive [inhibitor, partial curve]"}, {"smiles": "Cc1ccnc(NC(=O)c2ccc3c(c2)C(=O)N(CC(C)C)C3=O)c1", "Potency": "inconclusive [inhibitor, single point]"}, {"smiles": "Cc1cc(N2CCOCC2)n2nc(C)c(-c3ccccc3)c2n1", "Potency": "active: 11.2 µM"}, {"smiles": "CCN(CC)c1ccc(/C=C(\\C#N)c2ccccn2)cc1", "Potency": "active: 14.1 µM"}, {"smiles": "CC(C)Oc1cccc(C(=O)C2CCCN(C(=O)c3noc4c3CCCC4)C2)c1", "note": "(stereo not given)", "Potency": "inconclusive [inhibitor, single point]"}]}]}
